Data reported in the supplement of paper PMC3334620.
In all, about 33,000 sequences were measured (“E-score (-0.5 to 0.5)”: median about -0.041, highest 2% from about 0.37 on). Some of the results follow.

The sequences below were run against T1, Ecm22 (UniProt Q05958) (assay: PBM E-score (8-mer binding enrichment) (E-score (-0.5 to 0.5)); higher = stronger / more preferred TF binding; most listed sequences are background and not binding sites). Details: protein concentration: 200 nM; construct: GST-full length.
T1 sequence: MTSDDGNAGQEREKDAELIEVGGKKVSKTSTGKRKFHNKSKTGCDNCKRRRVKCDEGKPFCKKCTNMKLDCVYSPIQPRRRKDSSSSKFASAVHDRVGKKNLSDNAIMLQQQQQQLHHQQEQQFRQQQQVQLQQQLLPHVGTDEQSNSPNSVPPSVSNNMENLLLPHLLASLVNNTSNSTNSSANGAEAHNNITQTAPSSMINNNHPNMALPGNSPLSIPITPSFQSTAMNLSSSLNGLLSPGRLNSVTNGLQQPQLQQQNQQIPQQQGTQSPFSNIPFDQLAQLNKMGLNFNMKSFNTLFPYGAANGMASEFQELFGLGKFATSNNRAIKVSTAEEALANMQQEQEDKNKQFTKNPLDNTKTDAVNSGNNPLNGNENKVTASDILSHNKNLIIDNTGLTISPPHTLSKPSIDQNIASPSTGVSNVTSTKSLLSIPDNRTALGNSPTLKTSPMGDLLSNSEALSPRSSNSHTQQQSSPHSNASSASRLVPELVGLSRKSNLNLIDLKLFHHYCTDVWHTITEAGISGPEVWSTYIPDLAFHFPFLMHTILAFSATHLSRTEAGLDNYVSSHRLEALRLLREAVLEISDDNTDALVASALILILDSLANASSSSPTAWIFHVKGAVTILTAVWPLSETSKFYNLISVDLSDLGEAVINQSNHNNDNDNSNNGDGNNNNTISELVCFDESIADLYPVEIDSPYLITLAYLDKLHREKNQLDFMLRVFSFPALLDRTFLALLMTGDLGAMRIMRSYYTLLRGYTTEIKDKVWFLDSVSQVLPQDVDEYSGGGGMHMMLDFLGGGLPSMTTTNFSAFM
Outline: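 Universal all-10-mer Agilent arrays, double-stranded by primer extension on fresh or once-stripped slides, were probed with about 100-200 nM GST-tagged yeast transcription factors made by PURExpress. Fluorescent anti-GST detected bound protein, and masliner normalised the scans. E-scores from the Universal PBM Analysis Suite were given to each ungapped eight-base word pooled with its reverse complement.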

In order of rising “PBM E-score” value:
1. CAGGCATG  -0.342
2. TCAAGGCA  -0.337
3. TCACTTCA  -0.32
4. GCCTGGCA  -0.318
5. AAGAGGGC  -0.297
6. AGCCAGAA  -0.255
7. CCAAAGAC  -0.255
8. ACCACTGC  -0.25
9. CATCCCCA  -0.246
10. ACTGGGCG  -0.237
11. CCTGGCCA  -0.235
12. CAAGTGCC  -0.23
13. ATGTGTGG  -0.227
14. AAGAGCAG  -0.219
15. GCCAAAAC  -0.214
16. TCAGCGCA  -0.208
17. GCAATGGC  -0.202
18. CATTTTAA  -0.2
19. CATGTGCA  -0.197
20. GACTTCAA  -0.197
21. AGGTCCAA  -0.196
22. CAACCAGG  -0.193
23. AGTCCCAC  -0.192
24. CATCATGG  -0.191
25. AGCAATCC  -0.186
26. CTCAGCCA  -0.185
27. ATGCGGGG  -0.176
28. AGCATGGC  -0.175
29. CCTGTACA  -0.174
30. GGGCTGCA  -0.172
31. ATGCAATA  -0.167
32. CCGGTGTC  -0.166
33. AATAAAAT  -0.165
34. CAGGGCCA  -0.165
35. GGGACACC  -0.162
36. GCTAGACC  -0.161
37. CAAGTCGA  -0.158
38. CACGTGAC  -0.157
39. GGGTGCAC  -0.156
40. GCTAGAAC  -0.156
41. ACTTGGTG  -0.156
42. AGAGCACA  -0.154
43. AGCACCGG  -0.149
44. TAAGTCCA  -0.146
45. GATTCCCA  -0.144
46. ATGCAGGA  -0.144
47. ACAACCAA  -0.143
48. ATTAGTCC  -0.141
49. AAATGTTA  -0.137
50. CCGGCGGA  -0.135
51. GCACAACA  -0.133
52. CCAGATCA  -0.129
53. CCAGATGC  -0.128
54. CATCAGAG  -0.126
55. CCACACAG  -0.118
56. ACGTGAGT  -0.116
57. TAATAAAA  -0.115
58. GCTTTTGA  -0.115
59. GATCGTCA  -0.114
60. CGTCCGCC  -0.111
61. ACTGGGAA  -0.106
62. AGCCCGAA  -0.104
63. GGTGTAGA  -0.102
64. ATCTCCAC  -0.101
65. AGCTCCCT  -0.0989
66. ATCGTCGA  -0.0956
67. CGTGTTTC  -0.0946
68. ACTGTCCC  -0.0917
69. CCATCGGC  -0.091
70. AGACAGTC  -0.0903
71. GTCTCTCA  -0.0854
72. AATAGAGA  -0.0831
73. TCCTCCGA  -0.0815
74. TCTCTCAA  -0.0797
75. AGGACGCA  -0.0759
76. GCATAGAA  -0.0745
77. CTCATTTA  -0.0637
78. CGCAAGAC  -0.0635
79. AGTTACCA  -0.0635
80. ATCGCCAG  -0.0629
81. AATGAGAT  -0.0616
82. AGGTCAAC  -0.0536
83. AAGTTATG  -0.0511
84. CCCCGCGG  -0.0464
85. AAAGCTTA  -0.042
86. AAGCTATG  -0.0404
87. CCTCGGAG  -0.0375
88. GATGCGGA  -0.0372
89. GGTAAATA  -0.0365
90. ATCGACCC  -0.0324
91. GGTAATGA  -0.0284
92. CAGCGACG  -0.028
93. ATATCAGA  -0.0265
94. ATTCTCTA  -0.0255
95. GACGCCCC  -0.0249
96. AAGGATGG  -0.0229
97. AGCATCCT  -0.0208
98. AGCTCCAG  -0.0176
99. AAGACACC  -0.0175
100. AAGCGTTC  -0.0157
101. ATAACCAG  -0.0139
102. CCGGTAGA  -0.0124
103. CCAATTCA  -0.0121
104. AAGCGTAG  -0.011
105. ACAGCGTG  -0.00986
106. CTTAAGTA  -0.0092
107. CTCTTCAC  -0.00606
108. CAATATTC  0.00068
109. ATACATAA  0.00156
110. AACTGAAG  0.00501
111. AGACAACA  0.0125
112. ACACAAGT  0.0206
113. ATAATACC  0.0219
114. GCAACAAC  0.0235
115. CAGGATAA  0.0292
116. TACTGTGA  0.0305
117. CAATTAGA  0.0315
118. GAAGTATC  0.0371
119. CAAATTAG  0.0376
120. GTAGATAA  0.0425
121. GCTCTGGA  0.0517
122. AGCGATCC  0.0541
123. ACAAATAT  0.0544
124. AACGCTAT  0.0555
125. CATAGAAA  0.0585
126. CCTGGAAC  0.0615
127. AATCGCTC  0.0687
128. AGAGAACT  0.0722
129. CTGATTTC  0.0764
130. AGACATCT  0.0773
131. AGGAGACG  0.0819
132. GCCGGTTA  0.0824
133. TAGTCGCA  0.0835
134. GGCTGTAC  0.0838
135. CACACCCG  0.085
136. GAGCATAC  0.0872
137. ACCGATAG  0.0873
138. CCAGGAAC  0.0894
139. GCCATATA  0.0904
140. ACGTTGTA  0.0925
141. CTCGGGAC  0.101
142. TCGCCGAA  0.107
143. AATAATCA  0.11
144. GCGGGATA  0.12
145. TACAAAGA  0.126
146. GCACGAGA  0.127
147. AAACTAAC  0.139
148. GTTACGTA  0.146
149. GCTTGAAC  0.148
150. GGTTTATA  0.152
151. CCGGACCG  0.157
152. GGTCGCTA  0.157
153. ACGGAGGG  0.167
154. GGAGCGTA  0.174
155. CGCACGAA  0.175
156. ACCTATAT  0.184
157. AACGGATT  0.195
158. CGAAATAA  0.198
159. ACGGTGCA  0.205
160. CCGCGATA  0.206
161. CGAATTCC  0.212
162. ACGATCCT  0.255
163. ACGTCTCG  0.292
164. CGAATGCG  0.294
165. CAAGCGAG  0.302
166. ATCTACGA  0.304
167. TCGCTCCA  0.311
168. ACTCGGAT  0.318
169. ACTCGTTA  0.348
170. ACGAACGG  0.392
171. AACGATGT  0.396
172. TACGACCA  0.449
